# Results reported in PubChem BioAssay AID624417 (National Center for Advancing Translational Sciences (NCATS), 2012).
# Out of some 410,000 compounds screened, about 6,400 (1.6%) were called active. The shares of active, inactive and inconclusive entries below differ from those in the screen. Calls come from the whole dose curve; as a rule, active = well fitted inhibition curve with a large enough effect; inconclusive = small, poorly fitted or top-dose-only effect; inactive = no such curve, though single readings can be large or run the other way. Potencies of inconclusive entries are left out as doubtful fits.
# Target: Glucagon-like peptide 1 receptor (Homo sapiens) (UniProt P43220)
# Sequence of UniProt P43220 (P43220 whole entry, looked up): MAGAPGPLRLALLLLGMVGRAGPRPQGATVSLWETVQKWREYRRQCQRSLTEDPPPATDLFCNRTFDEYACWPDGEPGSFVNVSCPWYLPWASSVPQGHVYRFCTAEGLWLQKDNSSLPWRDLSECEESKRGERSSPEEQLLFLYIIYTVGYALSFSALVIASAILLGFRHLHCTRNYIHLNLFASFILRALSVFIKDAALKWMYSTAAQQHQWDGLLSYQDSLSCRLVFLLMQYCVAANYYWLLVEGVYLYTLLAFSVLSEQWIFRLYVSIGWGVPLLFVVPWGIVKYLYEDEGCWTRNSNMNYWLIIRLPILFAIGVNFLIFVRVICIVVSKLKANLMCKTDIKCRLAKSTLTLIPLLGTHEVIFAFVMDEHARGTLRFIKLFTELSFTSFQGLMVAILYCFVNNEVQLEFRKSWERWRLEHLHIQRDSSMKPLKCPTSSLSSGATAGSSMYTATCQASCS
# Test: qHTS of GLP-1 Receptor Inverse Agonists (Inhibition Mode); note: nearly all actives have a fitted effect of over 55% in size
# Conditions: HEK293 GLP-1R CRE-luciferase, luminescence, 24 h, GLP-1R form is constitutively active; series mostly up to 38.3 µM
# In short: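 Cells are plated, allowed 12 hours at 37 deg C, then treated with compounds for 24 hr before luciferase detection reagent is added and luminescence is read after 12 min at room temperature. The HEK293 line carries constitutively active GLP-1R with a cAMP-responsive reporter.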
# Potency is the fitted concentration of half-maximal effect; tags give direction and shape of the fitted curve.
row,Compound,Potency
1,O=C(C1CCCC1)N1CCN(S(=O)(=O)c2ccc(F)cc2)CC1,"inconclusive [inhibitor, partial curve, poor fit]"
2,CCc1ccc2oc(-c3cc(NC(=O)c4cccs4)ccc3Cl)nc2c1,"inconclusive [inhibitor, single point]"
3,O=C1C2C3C=CC(C3)C2C(=O)N1c1n[nH]c(-c2ccccc2)n1 (configuration not stated),inactive
4,COc1cccc(C(=O)Nc2ccc3nc(SCCOc4ccccc4)sc3c2)c1,inactive
5,Cc1cccc(C(C)(C)C)c1OCCn1ccnc1,"inconclusive [inhibitor, partial curve]"
6,Cc1ccc(NC(=O)COC(=O)c2csc3c2CCC(C)C3)cc1S(=O)(=O)N1CCCCC1 (configuration not stated),inactive
7,COc1ccc(C(=O)c2c(C)c3cc(C)ccc3n2CC(O)CN2CCOCC2)cc1 (configuration not stated),"inconclusive [inhibitor, partial curve, poor fit]"
8,Nc1nonc1OCCOCCOCCOc1nonc1N,inactive
9,CS(=O)(=O)N1CCC(Oc2cccc(C(=O)NCCCC3CCCC3)c2)CC1,"inconclusive [inhibitor, single point]"
10,CCC(=O)N1CCN(c2ccccc2NC(=O)COc2cccc(C)c2C)CC1,"inconclusive [inhibitor, partial curve, poor fit]"
11,Cc1onc(-c2ccccc2Cl)c1C(=O)N(C)CC(=O)Nc1ccc(F)c(F)c1F,"inconclusive [inhibitor, single point]"
12,CN(C)CCN1CCN(c2cc(-c3cccc(Cl)c3)nc3ccnn23)CC1,inactive
13,CCc1nc(SCC(=O)Nc2ccccc2C(=O)OC)n[nH]1,"inconclusive [inhibitor, partial curve, poor fit]"
14,O=C(Nc1ccc(F)c(F)c1)c1cc(S(=O)(=O)NC2CCCC2)ccc1F,active: 10 µM
15,O=C(c1ccc(CNS(=O)(=O)c2ccccc2)cc1)N1CCN(c2ccccn2)CC1,inactive
16,CC1CCN(S(=O)(=O)c2cc(C(=O)N3CCN(c4ccccc4)CC3)ccc2Br)CC1,"inconclusive [inhibitor, partial curve, poor fit]"
17,Cc1ccc(S(=O)(=O)NC(=O)C2(C)CCN2C(=O)c2ccccc2CCc2ccccc2)cc1 (configuration not stated),"inconclusive [inhibitor, single point]"
18,Cc1cccc(N(Cc2ccccc2)C(=O)Cc2ccc(S(=O)(=O)N3CCOCC3)s2)c1,"inconclusive [inhibitor, single point]"
19,Cc1nn(Cc2ccccc2)c(C)c1/C=N/NC(=O)CNc1cccc(C(F)(F)F)c1,"inconclusive [inhibitor, partial curve, poor fit]"
20,CNC(=O)c1cnc2sc(N3CCC(C)CC3)nn2c1=O,inactive
21,CCCCOc1cccc(C2c3c(-c4cc(C)ccc4O)n[nH]c3C(=O)N2CCOC)c1 (configuration not stated),"inconclusive [inhibitor, single point]"
22,Cc1ccc(C(=O)N/N=C\c2ccc(OC(=O)c3cccc(F)c3)cc2)cn1,inactive
23,O=S(=O)(NC1CCCCCCC1)c1ccccc1F,"inconclusive [inhibitor, single point]"

row,Compound,Potency
1,COc1ccc(NC(=O)CNC(=O)Cn2ccc3ccccc3c2=O)cc1OC,inactive
2,CCc1ccc(NC(=O)c2cc(=O)c3ccc(C)c(C)c3o2)cc1,"inconclusive [inhibitor, full curve, poor fit]"
3,O=C(Nc1ccccc1C(=O)N1CCCCC1)c1nsc2ccccc12,inactive
4,COc1ccc(-c2nnn(Cc3ccccc3F)n2)cc1,"inconclusive [inhibitor, single point]"
5,CCCCCc1ccc(-c2cn(Cc3cccc(OC)c3)nn2)cc1,"inconclusive [inhibitor, single point]"
6,CCOC(=O)[C@]12CCCC=C1N(Cc1cccc3ccccc13)C(=O)[C@H](CC(=O)NCc1ccc(OC)c(OC)c1)C2,"inconclusive [inhibitor, partial curve, poor fit]"
7,OCCc1ccc(NCCc2ccco2)cc1,inactive
8,O=C(CN(Cc1ccc(F)cc1)C(=O)CCC(=O)Nc1nccs1)NCc1ccc(F)cc1,"inconclusive [inhibitor, single point]"
9,Cc1ccc(CNC(=O)C2CC(c3cccc([N+](=O)[O-])c3)=NO2)cc1 (configuration not stated),"inconclusive [inhibitor, partial curve, poor fit]"
10,CC(C)COC(=O)N1CCCC1C(=O)O (configuration not stated),inactive
11,CNC(=S)N/N=C(\C)c1ccccc1,active: 10 µM
12,CCOc1ccc2nc(NC3=NC(C)(C)C=C(C)N3)nc(C)c2c1,"inconclusive [inhibitor, partial curve, poor fit]"
13,CCCC(=O)N1CCN(c2nc(CC(C)C)c3c(c2C#N)CCC3)CC1,"inconclusive [inhibitor, partial curve, poor fit]"
14,CC[C@H](C)[C@@H](C(=O)NCCCCCCCCCCC(=O)N1CCNCC1)n1cc(CCCCCN)nn1,"inconclusive [inhibitor, partial curve, poor fit]"
15,O=C(Cc1ccc(-c2ccccc2)cc1)NCCS(=O)(=O)N1CCN(c2ccccc2F)CC1,"inconclusive [inhibitor, single point]"
16,CCOC(=O)c1c(-c2ccc(OC)cc2)csc1NC(=O)CSc1ccccc1,active: 4.47 µM
17,COC(=O)CN1C(=O)CSc2ccc(S(=O)(=O)Nc3ccc(C)c(Cl)c3)cc21,"inconclusive [inhibitor, single point]"
18,NCC12CC3CC(C1)CC(c1ccc(Br)cc1)(C3)C2,"inconclusive [inhibitor, partial curve, poor fit]"
19,O=c1c2ccccc2nc(/C=C/c2ccc(Br)cc2)n1CCCO,"inconclusive [inhibitor, partial curve, poor fit]"
20,CSc1ncc(Cl)c(C(=O)Nc2nnc(SC/C=C/c3ccccc3)s2)n1,inactive
21,COc1cccc(CC(=O)NN2C(=O)NC3(CCCCC3)C2=O)c1,inactive
22,CC(C)NCC(O)COCCOc1ccc(C(C)(C)C)cc1 (configuration not stated),"inconclusive [inhibitor, partial curve, poor fit]"
23,COc1ccc(CCNCC(=O)Nc2ccc(C)c(Br)c2)cc1OC,active: 11.2 µM

row,Compound,Potency
1,O=[N+]([O-])c1cccc(C=NNC(=S)NC23CC4CC(CC(C4)C2)C3)c1,"inconclusive [inhibitor, full curve, poor fit]"
2,CCOC(=O)C1=C[C@@H](CC)N(S(=O)(=O)c2ccccc2)[C@H]1c1ccccc1,"inconclusive [inhibitor, partial curve, poor fit]"
3,Cc1cc(Cl)ccc1NC(=S)NCc1ccccc1Cl,"inconclusive [inhibitor, single point]"
4,Cc1ccc(C(=O)N(CC(=O)Nc2sc(C)c(C)c2C(N)=O)C2CCCC2)cc1,"inconclusive [inhibitor, single point]"
5,O=C(NCC1OCCc2ccccc21)c1ccc(NC(=O)c2ccccc2Cl)cc1 (configuration not stated),"inconclusive [inhibitor, single point]"
6,O=C(NCc1ccco1)c1nc(-c2ccccc2)n(-c2ccccc2)n1,"inconclusive [inhibitor, partial curve, poor fit]"
7,COc1ccccc1NC(=O)c1ncn(-c2ccccc2)n1,inactive
8,CCCCN1C(=O)c2[nH]nc(-c3ccccc3O)c2C1c1ccc(OCc2ccccc2)c(OC)c1 (configuration not stated),"inconclusive [inhibitor, single point]"
9,CCOC(=O)c1cccc(NC(=O)CCc2c(C)nn(-c3ccc(N4CCCCC4)nn3)c2C)c1,"inconclusive [inhibitor, single point]"
10,Cc1cccc(NC(=O)CSCC(=O)Nc2ccccc2C(=O)NC2CC2)c1,"inconclusive [inhibitor, partial curve]"
11,O=C(NCC(c1ccco1)N1CCc2ccccc21)c1ccc([N+](=O)[O-])cc1 (configuration not stated),"inconclusive [inhibitor, partial curve, poor fit]"
12,Cc1cc(C)c(C)c(S(=O)(=O)NCc2ccc(C(=O)N3CCN(C)CC3)cc2)c1C,"inconclusive [inhibitor, single point]"
13,Cc1ccc(Sc2c(C)nn(C(C)(C)C)c2OC(=O)CC(C)C)cc1,"inconclusive [inhibitor, partial curve, poor fit]"
14,COc1ccc(/C=C/C(=O)N2c3ccccc3Sc3ccc(C(F)(F)F)cc32)cc1,"inconclusive [inhibitor, partial curve, poor fit]"
15,O=S(=O)(N1CCCCC1)N1CCN(c2ccccc2F)CC1,"inconclusive [inhibitor, full curve]"
16,CNc1nc(NCCOc2ccccc2Cl)c2sccc2n1,"inconclusive [inhibitor, single point]"
17,O=C(Nc1ccc(Cl)c(Cl)c1)Nc1nnc(CC2=CCCCC2)s1,inactive
18,Cc1ccc(C(=O)N/N=C\c2ccc[nH]2)cn1,inactive
19,COc1ccc(C(C)(C)C)cc1NC(=O)CN(C)C1=NS(=O)(=O)c2ccccc21,inactive
20,COc1ccc(OC)c(Nc2nc3ccccc3nc2-n2nc(C)cc2C)c1,inactive
21,O=C(Cn1c(=O)c2c3c(sc2n(Cc2ccccc2)c1=O)CCCC3)NCCO,"inconclusive [inhibitor, full curve]"
